Experimental findings from patent US20240092853A1 (Hoffmann-La Roche, published 2024) are described below.

In the test the target is T1, IL-2 receptor on human NK cells (CD3neg CD56pos cells of fresh human PBMCs) (human, UniProt P14784 27-551; P31785 23-369).
T1 sequence (looked up) 1: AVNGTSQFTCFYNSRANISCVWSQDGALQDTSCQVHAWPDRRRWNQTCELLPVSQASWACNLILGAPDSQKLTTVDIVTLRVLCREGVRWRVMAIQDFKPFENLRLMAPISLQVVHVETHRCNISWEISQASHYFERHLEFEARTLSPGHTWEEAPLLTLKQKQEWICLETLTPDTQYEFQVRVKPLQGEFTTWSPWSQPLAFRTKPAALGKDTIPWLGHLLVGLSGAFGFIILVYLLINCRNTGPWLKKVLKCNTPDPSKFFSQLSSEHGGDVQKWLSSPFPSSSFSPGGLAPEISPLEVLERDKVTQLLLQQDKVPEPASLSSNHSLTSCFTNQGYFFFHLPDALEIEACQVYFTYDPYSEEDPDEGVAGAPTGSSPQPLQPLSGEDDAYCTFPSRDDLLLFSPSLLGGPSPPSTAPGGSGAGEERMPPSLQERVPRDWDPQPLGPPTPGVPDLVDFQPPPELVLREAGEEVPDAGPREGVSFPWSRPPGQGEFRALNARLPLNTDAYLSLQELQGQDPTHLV
T1 sequence (looked up) 2: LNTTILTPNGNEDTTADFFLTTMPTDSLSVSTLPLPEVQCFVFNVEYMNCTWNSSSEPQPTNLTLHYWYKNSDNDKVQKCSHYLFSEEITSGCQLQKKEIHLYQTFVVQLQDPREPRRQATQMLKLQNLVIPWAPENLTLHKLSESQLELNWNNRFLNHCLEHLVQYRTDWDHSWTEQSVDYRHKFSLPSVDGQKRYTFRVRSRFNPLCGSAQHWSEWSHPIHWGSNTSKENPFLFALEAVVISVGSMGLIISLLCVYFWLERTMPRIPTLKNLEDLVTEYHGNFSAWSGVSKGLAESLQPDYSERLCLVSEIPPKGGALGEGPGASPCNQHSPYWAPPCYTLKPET
The experiment in a line: cell-based or functional assay.

B1: Proleukin (ligand)
chain: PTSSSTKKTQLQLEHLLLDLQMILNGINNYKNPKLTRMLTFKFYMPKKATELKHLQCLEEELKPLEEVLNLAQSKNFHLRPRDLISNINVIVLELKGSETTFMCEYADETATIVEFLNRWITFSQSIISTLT
For the molecule B1, the “% AUC at pH 6.5 (pSTAT5 in NK cells, normalized to CD8 IgG IL2v at pH 7.4)” value is 61.3% and the “% AUC at pH 7.4 (pSTAT5 in NK cells, normalized to CD8 IgG IL2v at pH 7.4)” value stood at 120%.
